The values that follow come from article PMC9963398, “Discovery of New Quinolone-Based Diarylamides as Potent B-RAF^V600E/C-RAF Kinase Inhibitors Endowed with Promising In Vitro Anticancer Activity” (International Journal of Molecular Sciences, 2023).

The assay concerns the target T1, B-RAF^V600E (Homo sapiens, UniProt P15056, V600E).
T1 construct: purchased Reaction Biology Corporation (RBC), Kinase HotSpot service
As to the kind of experiment: HotSpot kinase assay (RBC), B-RAF^V600E. The class given is biochemical. To be noted: IC50 at 1 µM versus 10 µM ATP, B-RAF^V600E and C-RAF.

Regarding `CN1CCN(Cc2ccc(C(=O)Nc3cccc(Nc4ccc5cc(O)ccc5n4)c3)cc2C(F)(F)F)CC1` [Compound 18a, N-(3-((6-hydroxyquinolin-2-yl)amino)phenyl)-4-((4-methylpiperazin-1-yl)methyl)-3-(trifluoromethyl)benzamide], the inhibitory mode entry is recorded as “competitive ATP kinase inhibitor”.
